{"source": "PubChem BioAssay (NCATS)", "key": {"[1]": {"biological_target": "ATPase family AAA domain-containing protein 5 (Homo sapiens) (UniProt Q96QE3)", "sequence (Q96QE3 whole entry, looked up, the tested form may be a part)": "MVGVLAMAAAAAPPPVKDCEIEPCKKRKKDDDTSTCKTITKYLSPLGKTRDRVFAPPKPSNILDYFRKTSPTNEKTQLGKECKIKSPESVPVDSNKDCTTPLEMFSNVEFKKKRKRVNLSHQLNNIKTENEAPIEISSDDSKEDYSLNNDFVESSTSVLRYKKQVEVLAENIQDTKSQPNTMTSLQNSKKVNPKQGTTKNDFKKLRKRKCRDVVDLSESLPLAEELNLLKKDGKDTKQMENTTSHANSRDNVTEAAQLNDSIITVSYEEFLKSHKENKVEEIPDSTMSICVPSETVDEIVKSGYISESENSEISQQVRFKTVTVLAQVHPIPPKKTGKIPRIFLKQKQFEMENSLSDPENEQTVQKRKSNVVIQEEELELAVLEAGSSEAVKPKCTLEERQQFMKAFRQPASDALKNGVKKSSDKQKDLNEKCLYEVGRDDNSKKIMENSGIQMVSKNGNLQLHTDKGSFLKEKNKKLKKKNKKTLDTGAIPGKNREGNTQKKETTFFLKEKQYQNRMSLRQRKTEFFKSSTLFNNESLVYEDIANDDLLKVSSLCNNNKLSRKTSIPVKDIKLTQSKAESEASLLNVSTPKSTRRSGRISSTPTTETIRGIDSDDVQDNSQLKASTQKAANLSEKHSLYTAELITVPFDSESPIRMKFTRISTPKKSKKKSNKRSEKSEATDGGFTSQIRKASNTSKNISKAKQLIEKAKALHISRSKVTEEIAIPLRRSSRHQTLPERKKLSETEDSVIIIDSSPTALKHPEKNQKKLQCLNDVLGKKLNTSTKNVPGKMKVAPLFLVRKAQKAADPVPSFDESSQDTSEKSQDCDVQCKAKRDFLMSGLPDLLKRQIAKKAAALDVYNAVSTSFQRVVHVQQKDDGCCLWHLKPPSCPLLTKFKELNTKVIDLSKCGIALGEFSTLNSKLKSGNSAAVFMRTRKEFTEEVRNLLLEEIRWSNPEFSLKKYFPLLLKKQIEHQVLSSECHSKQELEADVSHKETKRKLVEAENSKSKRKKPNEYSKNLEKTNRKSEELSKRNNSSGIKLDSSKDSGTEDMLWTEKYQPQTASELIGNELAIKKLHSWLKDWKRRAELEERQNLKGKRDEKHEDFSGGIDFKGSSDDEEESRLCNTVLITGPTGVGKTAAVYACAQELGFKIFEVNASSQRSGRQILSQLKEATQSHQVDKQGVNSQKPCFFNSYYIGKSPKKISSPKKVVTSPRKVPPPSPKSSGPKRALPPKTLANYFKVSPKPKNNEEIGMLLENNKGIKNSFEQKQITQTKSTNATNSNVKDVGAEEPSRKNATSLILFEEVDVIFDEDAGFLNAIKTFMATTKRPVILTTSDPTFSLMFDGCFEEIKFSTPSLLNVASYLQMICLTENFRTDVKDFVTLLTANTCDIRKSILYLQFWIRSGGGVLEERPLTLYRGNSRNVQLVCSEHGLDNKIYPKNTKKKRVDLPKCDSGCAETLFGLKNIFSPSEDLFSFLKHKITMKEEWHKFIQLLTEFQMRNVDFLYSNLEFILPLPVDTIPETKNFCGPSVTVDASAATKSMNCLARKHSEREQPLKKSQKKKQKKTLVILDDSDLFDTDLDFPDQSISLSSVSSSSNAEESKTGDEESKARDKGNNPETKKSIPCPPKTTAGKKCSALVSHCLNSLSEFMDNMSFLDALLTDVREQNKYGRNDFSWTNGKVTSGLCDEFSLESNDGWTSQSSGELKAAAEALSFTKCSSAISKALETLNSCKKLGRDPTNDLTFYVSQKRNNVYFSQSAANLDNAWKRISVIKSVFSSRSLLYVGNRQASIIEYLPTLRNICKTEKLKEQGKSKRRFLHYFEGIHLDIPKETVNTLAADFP", "test": "qHTS screen for small molecules that inhibit ELG1-dependent DNA repair in human embryonic kidney (HEK293T) cells expressing luciferase-tagged ELG1: Hit Confirmation using MMS Stimulated ELG1 (AID 624249); note: nearly all actives have a fitted effect of over 60% in size", "outline": "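Compounds are tested on HEK293T cells expressing ELG1-luc, co-treated with 10 µM MMS (final), for 16 h before luminescence readout with Amplight.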"}, "[2]": {"test": "qHTS screen for small molecules that inhibit ELG1-dependent DNA repair: Hit Confirmation with 5FU Viability (AID 624250)", "outline": "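Compounds are tested on ELG1-luc HEK293T cells in the presence of 5-fluorouridine (final 10 µM). Viability is measured with CellTiter-Glo 16 h after compound addition.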"}, "[3]": {"test": "qHTS screen for small molecules that inhibit ELG1-dependent DNA repair: Hit Confirmation with MMS Viability (AID 624251); note: nearly all actives have a fitted effect of over 60% in size", "outline": "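ELG1-luc HEK293T cells, 2,000/well, given compounds about 5 h after plating together with MMS at 10 µM final; viability measured by CellTiter-Glo after 16 h.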"}}, "note": "This list was built around the results that the source calls inconclusive (neither active nor inactive); the mix of calls is not that of the screen. No potency is given beside an inconclusive call; the fits are too rough. Activity calls are given as the source filed them. Calls come from the whole dose curve; as a rule, active = well fitted curve in the direction sought with a large enough effect; inconclusive = small, poorly fitted or top-dose-only effect, or another doubt; inactive = no such curve, though single readings can be large; an effect the other way counts as inactive or inconclusive. Potency is the fitted concentration of half-maximal effect; tags give direction and shape of the fitted curve.", "data": [{"compound": "COc1cc2c(cc1OC)CN(C(=O)c1nn(Cc3ccccc3)c(=O)c3ccccc13)CC2", "values": [{"measurement": "Potency", "setting": "[1]", "value": "inconclusive [inhibitor, single point]"}, {"measurement": "Potency", "setting": "[2]", "value": "inconclusive [rising, full curve]"}, {"measurement": "Potency", "setting": "[3]", "value": "inconclusive [cytotoxic, single point]"}]}, {"compound": "COc1ccc(S(=O)(=O)NCc2ccncc2)cc1NC(=O)c1ccc(Cl)cc1", "values": [{"measurement": "Potency", "setting": "[1]", "value": "inconclusive [inhibitor, single point]"}, {"measurement": "Potency", "setting": "[2]", "value": "inactive"}, {"measurement": "Potency", "setting": "[3]", "value": "inconclusive [cytotoxic, partial curve]"}]}, {"compound": "CC(C)NC(=O)Nc1cccc2c1O[C@H](CN(C)C(=O)Nc1ccc(C(F)(F)F)cc1)[C@@H](C)CN([C@H](C)CO)C2=O", "values": [{"measurement": "Potency", "setting": "[2]", "value": "inconclusive [rising, full curve, poor fit]"}, {"measurement": "Potency", "setting": "[3]", "value": "inactive"}]}, {"compound": "CCOC(=O)N1CCN(C(=O)c2cnn3c(C(F)F)cc(-c4ccc(C)cc4)nc23)CC1", "values": [{"measurement": "Potency", "setting": "[2]", "value": "inconclusive [rising, full curve]"}, {"measurement": "Potency", "setting": "[3]", "value": "inactive"}]}, {"compound": "C=CCn1c(Oc2ccccc2F)nc2c1c(=O)n(C)c(=O)n2C", "values": [{"measurement": "Potency", "setting": "[2]", "value": "inconclusive [rising, partial curve, poor fit]"}, {"measurement": "Potency", "setting": "[3]", "value": "inactive"}]}, {"compound": "O=C(N/N=C/c1sc(N2CCOCC2)nc1-c1ccccc1)c1cccc(S(=O)(=O)N2CCOCC2)c1", "values": [{"measurement": "Potency", "setting": "[2]", "value": "inactive"}, {"measurement": "Potency", "setting": "[3]", "value": "inconclusive [cytotoxic, full curve]"}]}, {"compound": "CCc1c(C)nc2cc(-c3cc(OC)cc(OC)c3)nn2c1N1CCN(CCN2CCOCC2)CC1", "values": [{"measurement": "Potency", "setting": "[2]", "value": "inconclusive [rising, partial curve]"}, {"measurement": "Potency", "setting": "[3]", "value": "inactive"}]}, {"compound": "COc1ccc(C)cc1NC(=O)CN1CCCC1c1ccc2c(c1)OCCCO2", "note": "(centres undefined)", "values": [{"measurement": "Potency", "setting": "[2]", "value": "inconclusive [rising, full curve]"}, {"measurement": "Potency", "setting": "[3]", "value": "inconclusive [cytotoxic, single point]"}]}, {"compound": "COc1ccc(NC(=O)c2sc3ncnc(N4CCN(c5ccccn5)CC4)c3c2C)cc1Cl", "values": [{"measurement": "Potency", "setting": "[2]", "value": "inactive"}, {"measurement": "Potency", "setting": "[3]", "value": "inconclusive [cytotoxic, partial curve]"}]}, {"compound": "Cc1noc(/C=C/c2ccco2)c1S(=O)(=O)N1CCC(C(=O)N(C)Cc2ccccc2)CC1", "values": [{"measurement": "Potency", "setting": "[2]", "value": "inconclusive [rising, full curve]"}]}, {"compound": "CCCNC(=O)C(=O)Nc1ccc2c(c1)N(S(=O)(=O)c1cccs1)CCC2", "values": [{"measurement": "Potency", "setting": "[2]", "value": "inconclusive [rising, partial curve, poor fit]"}, {"measurement": "Potency", "setting": "[3]", "value": "inconclusive [cytotoxic, full curve]"}]}, {"compound": "COc1ccc(NC(=O)C2CCN(c3ncnc4c3nc3n4CCCCC3)CC2)cc1Cl", "values": [{"measurement": "Potency", "setting": "[2]", "value": "inconclusive [rising, full curve, poor fit]"}, {"measurement": "Potency", "setting": "[3]", "value": "inconclusive [cytotoxic, single point]"}]}, {"compound": "Cc1[nH]nc2ncc(C(=O)c3ccccc3O)cc12", "values": [{"measurement": "Potency", "setting": "[2]", "value": "inconclusive [rising, partial curve, poor fit]"}, {"measurement": "Potency", "setting": "[3]", "value": "inconclusive [rising, partial curve, poor fit]"}]}, {"compound": "O=C1NC[C@H](c2ccccc2)OC(=O)[C@@H](Cc2ccc(F)cc2)C/C=C\\C[C@H]1CC(=O)N(CCO)Cc1ccccc1", "values": [{"measurement": "Potency", "setting": "[2]", "value": "inconclusive [rising, partial curve, poor fit]"}, {"measurement": "Potency", "setting": "[3]", "value": "inconclusive [cytotoxic, single point]"}]}, {"compound": "O=C(Nc1ccc(F)cc1)c1ccc2c(=O)n(CC3CCCO3)c(=S)[nH]c2c1", "note": "(centres undefined)", "values": [{"measurement": "Potency", "setting": "[2]", "value": "inconclusive [rising, full curve, poor fit]"}, {"measurement": "Potency", "setting": "[3]", "value": "inconclusive [cytotoxic, partial curve, poor fit]"}]}, {"compound": "CN1C(=O)c2ccc(NC(=O)c3ccc(N4CCCCC4)c([N+](=O)[O-])c3)cc2C1=O", "values": [{"measurement": "Potency", "setting": "[2]", "value": "inconclusive [rising, partial curve, poor fit]"}, {"measurement": "Potency", "setting": "[3]", "value": "inconclusive [cytotoxic, full curve]"}]}, {"compound": "COc1cc(C(=O)NCCOc2cc(C)ccc2C(C)C)cc(OC)c1OC", "values": [{"measurement": "Potency", "setting": "[2]", "value": "inactive"}, {"measurement": "Potency", "setting": "[3]", "value": "active: 5.6 µM"}]}, {"compound": "CCc1ccc(C2c3[nH]c4ccccc4c3CCN2C(=O)c2cc(C)nn2C)cc1", "note": "(centres undefined)", "values": [{"measurement": "Potency", "setting": "[2]", "value": "inconclusive [rising, full curve, poor fit]"}, {"measurement": "Potency", "setting": "[3]", "value": "inconclusive [cytotoxic, single point]"}]}, {"compound": "COc1cc(C(=O)Nc2ccccc2C(=O)Nc2ccccn2)cc(OC)c1OC", "values": [{"measurement": "Potency", "setting": "[2]", "value": "inconclusive [rising, single point]"}, {"measurement": "Potency", "setting": "[3]", "value": "inconclusive [cytotoxic, partial curve, poor fit]"}]}]}
